{"source": "the RNAGym collection of RNA variant scans (doi:10.7554/elife.90254)", "parents": {"B1": {"name": "LINE1-mini (parent)", "chain": "GGCAGAGCUCAACACAGCGUGGCAAAGUGGCUGUGGCUAGACUGCC"}}, "note": "Read counts are not given, so values of variants with three or more changes are uncertain.", "data": [{"variants_of": "B1", "assay": "self-cleavage, relative activity (ratio to wild type); higher = more cleavage; in vitro, sequencing; the parent is a self-cleaving ribozyme", "values": [{"variant": "G5U C18A A26G C31U", "self-cleavage": 0.02}, {"variant": "G21A G22A G27A C37U", "self-cleavage": 0.01}, {"variant": "C13G A39G C42A", "self-cleavage": 0.08}, {"variant": "A26U G29U C42U G44A", "self-cleavage": 0.71}, {"variant": "G1A G17U G35A", "self-cleavage": 0.1}, {"variant": "C3U C10U C15U C23U U38C", "self-cleavage": 0.07}, {"variant": "G5U C15A A16U G36U", "self-cleavage": 0.04}, {"variant": "C10G G36C U38A", "self-cleavage": 0.02}, {"variant": "G7U G33U G40C", "self-cleavage": 0.21}, {"variant": "A4G A11C U32A", "self-cleavage": 0.02}, {"variant": "G1A A12U U20C U32A", "self-cleavage": 0.01}, {"variant": "A11G A16C C18A", "self-cleavage": 0.01}, {"variant": "C13A C18A C23A", "self-cleavage": 0.02}, {"variant": "C18U C23U G29U", "self-cleavage": 1.46}, {"variant": "C15U G22U U32A", "self-cleavage": 0.01}, {"variant": "A4G C10A C23A A25U G40U", "self-cleavage": 0.01}, {"variant": "A16C A39U C45U", "self-cleavage": 0.08}, {"variant": "U9G A16G G19C G21A", "self-cleavage": 0.03}, {"variant": "C3A A14G G30A", "self-cleavage": 1.07}, {"variant": "C8A C13G G35C C45G", "self-cleavage": 0.04}, {"variant": "C8G C15A G19A C23A G27C", "self-cleavage": 0.03}, {"variant": "G5U C15A G17C G30A G36U G44U", "self-cleavage": 0.02}, {"variant": "A4C A24G C42A", "self-cleavage": 0.28}, {"variant": "G17A C23U C42G", "self-cleavage": 0.01}, {"variant": "G7C U9A U32C", "self-cleavage": 0.03}, {"variant": "G7C C18G G22C", "self-cleavage": 0.02}, {"variant": "C3U G19A C31A", "self-cleavage": 0.12}, {"variant": "G27A G35U C37U", "self-cleavage": 0.04}, {"variant": "G33C U34C U38C", "self-cleavage": 0.02}, {"variant": "C8G A25C A41G C46U", "self-cleavage": 0.24}, {"variant": "A6G C18G G29U C37U", "self-cleavage": 0.07}, {"variant": "U32A C37A C46A", "self-cleavage": 0.03}, {"variant": "A4C A11C C31A G33A C42U", "self-cleavage": 0.01}, {"variant": "G7C A12C G35U", "self-cleavage": 0.02}, {"variant": "G35A A39G G40U", "self-cleavage": 0.03}, {"variant": "U9G A12U C23G G40A", "self-cleavage": 0.01}, {"variant": "C3U U38C C45G", "self-cleavage": 0.48}, {"variant": "A25C G29A G33U A41G", "self-cleavage": 0}, {"variant": "A14U C37U A39G", "self-cleavage": 0.02}, {"variant": "A12C C18U A25G A26G G33C G44C", "self-cleavage": 0}, {"variant": "C3A C18U G19A", "self-cleavage": 0.34}, {"variant": "A6C A11C G21A", "self-cleavage": 0.03}, {"variant": "A4U C18A A39C G40U", "self-cleavage": 0.02}, {"variant": "G5U A6U A41U", "self-cleavage": 0.11}, {"variant": "G7A C23U G27A", "self-cleavage": 1.13}, {"variant": "U9C C10A A25G", "self-cleavage": 0.01}, {"variant": "G21U G27U G33A", "self-cleavage": 0.37}, {"variant": "G2C G5A U28G", "self-cleavage": 0.02}, {"variant": "A4U G5U C31A", "self-cleavage": 0.04}, {"variant": "C8U A14C A25U", "self-cleavage": 0.22}, {"variant": "G1C G17A G35A G36C", "self-cleavage": 0.02}, {"variant": "G2U C3G A6U C8G A12G G22U G30A", "self-cleavage": 0.02}, {"variant": "A4G A26C G27A", "self-cleavage": 0.08}, {"variant": "G17U A25G G30U G33A", "self-cleavage": 0.01}, {"variant": "A4G A24U G33A", "self-cleavage": 0.19}, {"variant": "G17U C18G G21U A25U C31G G33C", "self-cleavage": 0.11}, {"variant": "G1A C8G A26C G30A G36A", "self-cleavage": 0.73}, {"variant": "C8U C23U A24U U34A C42G", "self-cleavage": 0.17}, {"variant": "U9G U20A C31U G44U", "self-cleavage": 0}, {"variant": "C3G A26U G27U U34G C46U", "self-cleavage": 0.09}, {"variant": "G27A G33C C37U", "self-cleavage": 0.09}, {"variant": "G5A A6G U28G", "self-cleavage": 0.02}, {"variant": "A6U C8A A12U G22A A39G", "self-cleavage": 0.07}, {"variant": "G1C C37A A39U", "self-cleavage": 0.06}, {"variant": "G1U G2A U9G C10U G17C G21U", "self-cleavage": 0.08}, {"variant": "A6C C10G C31U", "self-cleavage": 0.01}, {"variant": "G7C U28G U43G C45G", "self-cleavage": 0.02}, {"variant": "U9C C10U C23A", "self-cleavage": 0.02}, {"variant": "G7U C13U A14U C23U", "self-cleavage": 0.09}, {"variant": "G1C C8G A16U C31G U38C", "self-cleavage": 0}, {"variant": "C3A A16U U34G A39G", "self-cleavage": 0.06}, {"variant": "G1C A6C C15G U20G G40U U43A", "self-cleavage": 0}, {"variant": "C8U C10A G29A U43C", "self-cleavage": 0.01}, {"variant": "A12G G27C C45G", "self-cleavage": 0.02}, {"variant": "A12G G27C C37G", "self-cleavage": 0}, {"variant": "U9A C10G G21A G40A", "self-cleavage": 0.01}, {"variant": "C10U G44C C45G", "self-cleavage": 0.02}, {"variant": "G1U C18A G36C", "self-cleavage": 0.02}, {"variant": "C3G C13G G19U", "self-cleavage": 0.91}, {"variant": "C13U A14G G22C G33U", "self-cleavage": 0.02}, {"variant": "G17C G21C A41G", "self-cleavage": 0.2}, {"variant": "C13A A16C C31U G35A", "self-cleavage": 0.06}, {"variant": "C13G C18U G19A", "self-cleavage": 0.09}, {"variant": "A4U A11C A14U U20A U34A", "self-cleavage": 0.02}, {"variant": "C23U U34A G40U", "self-cleavage": 0.04}, {"variant": "A4G A14U C42G", "self-cleavage": 0.06}, {"variant": "G21U G22A G36C A39C", "self-cleavage": 0.02}, {"variant": "C10A C13U A14G U32G C42A", "self-cleavage": 0.04}, {"variant": "C13U C15A A16U G19A C45A", "self-cleavage": 0.04}, {"variant": "C15A C37A C45U", "self-cleavage": 0.04}, {"variant": "G1U G19A U34A", "self-cleavage": 0.18}, {"variant": "G1U G7C C10U A12U C15U U28C G29C G35A C37G", "self-cleavage": 0.05}, {"variant": "G1A A24U G33C C42A C46A", "self-cleavage": 0.04}, {"variant": "C8A A16U C23G U32G", "self-cleavage": 0.31}, {"variant": "A11C G17U G22U U43A", "self-cleavage": 0.01}, {"variant": "C8G U20C U32A", "self-cleavage": 0.1}, {"variant": "A6C G19A G27A G44C", "self-cleavage": 0.18}, {"variant": "C3U A14G C15U A16U", "self-cleavage": 0.12}, {"variant": "A11C G19U G27C", "self-cleavage": 0.02}, {"variant": "A11G U28A G29C U34G", "self-cleavage": 0.01}, {"variant": "A11C U32A G35C U43C", "self-cleavage": 0.03}, {"variant": "C31G G33U G36C", "self-cleavage": 0.07}, {"variant": "C3U C8G C10A U32C", "self-cleavage": 0.02}, {"variant": "G7C U20G A25C C31A", "self-cleavage": 0.04}, {"variant": "G5U C10A U20C", "self-cleavage": 0.01}, {"variant": "U28G G29C C42U", "self-cleavage": 0.08}, {"variant": "C10G U28A G30A", "self-cleavage": 0.08}, {"variant": "A4C A11C U38G G44U C46G", "self-cleavage": 0.03}, {"variant": "G2U U9C C15U C18U G30C", "self-cleavage": 0.01}, {"variant": "A11G C15G G21A A39U", "self-cleavage": 0.01}, {"variant": "A11C G19C G21A C37G A41G", "self-cleavage": 0}, {"variant": "A11G G35C C45U", "self-cleavage": 0}, {"variant": "G1A A11U C13G A25G A41C", "self-cleavage": 0.02}, {"variant": "U9C A12G A39C", "self-cleavage": 0.01}, {"variant": "C10G C18U G21A C45A", "self-cleavage": 0.02}, {"variant": "C3U C10A G36A C37G", "self-cleavage": 0.02}, {"variant": "G5A U28C G29C", "self-cleavage": 0.15}, {"variant": "A6U A14G U20G C31G A39U", "self-cleavage": 0.03}, {"variant": "A14U G17U C46A", "self-cleavage": 0.02}, {"variant": "A4G C23A G29A G35U A39G", "self-cleavage": 0.13}, {"variant": "G5U C13A C15A", "self-cleavage": 0.61}, {"variant": "G1A C8G G19A G27U U34A", "self-cleavage": 0.08}, {"variant": "A6U G27U G29C", "self-cleavage": 0.25}, {"variant": "C10A C15G G30A G33U", "self-cleavage": 0.03}, {"variant": "A11G A14C G21C", "self-cleavage": 0}, {"variant": "A6C U28A U38G", "self-cleavage": 0.01}, {"variant": "A11C C13U U20G C23A", "self-cleavage": 0.01}, {"variant": "A26U C31A C37A", "self-cleavage": 0.02}, {"variant": "A6C U20G C46A", "self-cleavage": 0.05}, {"variant": "C13A G19C A41G", "self-cleavage": 0.01}, {"variant": "A6U A12C U38C", "self-cleavage": 0.04}, {"variant": "A11C A12C G22C", "self-cleavage": 0}, {"variant": "A14C G22A C45A", "self-cleavage": 0.04}, {"variant": "G30C G40U G44C", "self-cleavage": 0.03}, {"variant": "G2C G7A C18A U20G G35U C37U", "self-cleavage": 0.05}, {"variant": "C8A U9G G33U A41G", "self-cleavage": 0.03}, {"variant": "C13A A24U G36A A41G", "self-cleavage": 0.01}, {"variant": "A16C C31G G33A C37A", "self-cleavage": 0.06}, {"variant": "U28G C31U G40U U43C", "self-cleavage": 0}, {"variant": "G1U C13U G19U U20G C45U", "self-cleavage": 0.05}, {"variant": "C10U A11G C18G U34A", "self-cleavage": 0.01}, {"variant": "G1U C42G G44C", "self-cleavage": 0.02}, {"variant": "A11C U20G A25G G29A", "self-cleavage": 0.04}, {"variant": "A12U C13A C18U G30C G36U", "self-cleavage": 0.09}, {"variant": "C3A C10A G21A C31A C46U", "self-cleavage": 0.05}, {"variant": "C8A A16C G35A A41C", "self-cleavage": 0.07}, {"variant": "G5U U28A G35A C45G", "self-cleavage": 0.09}, {"variant": "C13G C15A C46A", "self-cleavage": 0.21}, {"variant": "C8A U32A G33A", "self-cleavage": 0.15}, {"variant": "A6G C8A G22A", "self-cleavage": 0.19}, {"variant": "G1U G19U A26U U32A U43G G44A", "self-cleavage": 0.05}, {"variant": "G19U G35U C42A", "self-cleavage": 0.05}, {"variant": "C8A G40A C45G", "self-cleavage": 0.46}, {"variant": "A12G A41G C42G", "self-cleavage": 0.12}, {"variant": "C3A U32G C45G", "self-cleavage": 0.19}, {"variant": "G19C G29C G36C U43C", "self-cleavage": 0.04}, {"variant": "C8A U20C C23U", "self-cleavage": 0.14}, {"variant": "C3U U9C U32C", "self-cleavage": 0.02}, {"variant": "A11U G35U G40U", "self-cleavage": 0.01}, {"variant": "G5A A6U C42A", "self-cleavage": 0.07}, {"variant": "G1A G5U U20G G27A", "self-cleavage": 0.24}, {"variant": "C3G A6C A11C C37U", "self-cleavage": 0.01}, {"variant": "G1U G27C U28C G30U", "self-cleavage": 0.04}, {"variant": "C10U A16U U32G", "self-cleavage": 0.07}, {"variant": "C3A G7C C8G G29U G35U G44A C46A", "self-cleavage": 0.06}, {"variant": "G1U G5C G19C C37U", "self-cleavage": 0.03}, {"variant": "G1U G17A A41U C45U", "self-cleavage": 0.11}]}]}
